Assay results as given in PubChem BioAssay AID504332 (National Center for Advancing Translational Sciences (NCATS), 2011).
Several values for one entry are separate records, joined by “and”; a condition that tells them apart may be missing. Identical values can stand only once. Out of some 350,000 compounds screened, about 31,000 (8.9%) were called active. Inconclusive means that the source gave no clear call. Such entries were picked first, then a sample of the others. The call rests on the fitted dose curve; in most records, active means well fitted inhibition curve with a large enough effect; inconclusive means small, poorly fitted or top-dose-only effect; inactive means no such curve, though single readings can be large or run the other way. Potencies of inconclusive entries are doubtful fits and often do not repeat. The source holds several records for some structures; these can differ, active in one and inactive in another.

Molecular target: Histone-lysine N-methyltransferase EHMT2 (Homo sapiens) (UniProt Q96KQ7)
Experiment: qHTS Assay for Inhibitors of Histone Lysine Methyltransferase G9a; further: nearly all actives have a fitted effect of over 75% in size
Details: G9a H3K9 monomethylation, AlphaScreen, 2 h; activity, negative = inhibition: at 59 µM (top of the series) unless noted
Summary of the method: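 AlphaScreen read-out: biotin-H3K9 peptide (500 nM) methylation by 20 nM enzyme with 20 uM SAM, 2 h at room temperature after 15 min compound preincubation; anti-monomethyl H3K9 antibody plus donor/acceptor beads, 10 min dark.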
On the % scale 0 is the no-effect control and ±100 the full control effect; potency means the concentration at half of the fitted maximal effect; tags describe the fitted curve by direction and shape.

UniProt Q96KQ7, sequence (Q96KQ7 whole entry, looked up): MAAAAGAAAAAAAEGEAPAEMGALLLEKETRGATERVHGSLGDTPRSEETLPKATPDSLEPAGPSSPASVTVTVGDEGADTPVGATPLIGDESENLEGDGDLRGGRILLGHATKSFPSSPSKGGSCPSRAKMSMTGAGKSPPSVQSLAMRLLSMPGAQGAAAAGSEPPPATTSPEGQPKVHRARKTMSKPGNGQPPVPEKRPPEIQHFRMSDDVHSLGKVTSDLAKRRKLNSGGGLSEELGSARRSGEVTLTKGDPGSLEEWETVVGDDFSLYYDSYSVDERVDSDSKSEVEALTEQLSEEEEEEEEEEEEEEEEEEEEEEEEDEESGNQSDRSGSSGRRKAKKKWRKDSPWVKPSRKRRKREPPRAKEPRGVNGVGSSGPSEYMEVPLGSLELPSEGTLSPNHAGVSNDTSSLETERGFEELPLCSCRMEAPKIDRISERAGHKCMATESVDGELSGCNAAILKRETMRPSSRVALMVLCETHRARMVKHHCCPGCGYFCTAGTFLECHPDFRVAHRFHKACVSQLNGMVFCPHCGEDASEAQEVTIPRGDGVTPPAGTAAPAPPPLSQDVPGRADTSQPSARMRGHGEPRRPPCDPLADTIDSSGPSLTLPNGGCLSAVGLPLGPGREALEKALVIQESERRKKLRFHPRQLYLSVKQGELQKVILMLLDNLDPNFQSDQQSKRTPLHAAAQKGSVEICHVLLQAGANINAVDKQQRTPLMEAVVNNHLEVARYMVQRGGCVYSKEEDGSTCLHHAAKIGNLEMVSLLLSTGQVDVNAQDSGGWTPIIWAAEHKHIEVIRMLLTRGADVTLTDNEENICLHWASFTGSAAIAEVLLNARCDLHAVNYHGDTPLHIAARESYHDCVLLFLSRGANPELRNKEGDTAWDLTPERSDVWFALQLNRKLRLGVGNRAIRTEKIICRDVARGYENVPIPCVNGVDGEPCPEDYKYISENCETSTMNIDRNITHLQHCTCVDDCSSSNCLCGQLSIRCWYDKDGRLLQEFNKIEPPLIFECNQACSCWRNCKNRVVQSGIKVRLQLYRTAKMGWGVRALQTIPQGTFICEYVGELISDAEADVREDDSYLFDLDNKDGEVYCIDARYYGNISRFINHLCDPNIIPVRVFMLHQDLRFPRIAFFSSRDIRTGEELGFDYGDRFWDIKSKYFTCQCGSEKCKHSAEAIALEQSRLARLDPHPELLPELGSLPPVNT

Row | Structure (SMILES) | Potency | activity, negative = inhibition
1 | O=C1N(Cc2cccc(Cl)c2)C[C@@H]2C[C@@H](c3ccco3)N3CCC[C@@]123 | inconclusive: 35.5 µM [inhibitor, partial curve, poor fit] | 
2 | CC1=C(C(=O)OCc2ccccc2)C(c2ccc3ccccc3c2)NC(=O)N1CCCCCC(=O)O (stereo unspecified) | inconclusive: 79.4 µM [inhibitor, single point] | 
3 | COc1cc(C(=O)OCC(=O)Nc2ccc(SC(F)F)cc2)cc(OC)c1OC | inconclusive: 20 µM [inhibitor, partial curve, poor fit] | 
4 | Cc1cc(C)nc(NC=C2C(=O)OC(C)(C)OC2=O)n1 | inconclusive: 56.2 µM [inhibitor, partial curve] | 
5 | Cc1ccc(S(=O)(=O)CC(=O)N2CCN(c3ccc(F)cc3)CC2)cc1 | inactive | 
6 | O=C(Nc1cccc(Cl)c1)C1CCCN(c2nn3cc(-c4ccc(F)cc4)nc3s2)C1 (stereo unspecified) | inconclusive: 25.1 µM [inhibitor, partial curve, poor fit] | 
7 | COc1ccc(NC(=O)NCCN2CCN(c3cc(OC)ccc3OC)CC2)cc1 | inconclusive: 89.1 µM [inhibitor, single point] | 
8 | Clc1ccc(-c2nc3nc4ccccc4nc3n2Cc2ccco2)cc1 | inactive | 
9 | O=C(COc1ncnc2ccc(Br)cc12)NCc1ccco1 |  | inconclusive: -71.7% [inhibitor]
10 | c1ccc2c(c1)N1CCN=C1N2CCN1CCCCC1 | inconclusive: 50.1 µM [inhibitor, partial curve] | 
11 | CC1CCCCN1CCNC(=O)c1ccc2c(=O)n(Cc3ccc(Cl)cc3)c(=S)[nH]c2c1 (stereo unspecified) | inconclusive: 44.7 µM [inhibitor, partial curve, poor fit] | 
12 | NC(=O)C1CCCN(Cc2ccc3ccccc3c2)C1 (stereo unspecified) | inconclusive: 0.282 µM [inhibitor, full curve, poor fit] | 
13 | COc1ccc(-c2oc3ccccc3c2C(=O)OCc2ccccc2)cc1 | inactive | 
14 | N#CCC(=O)Nc1ccc(C(=O)OCC(=O)N2CCCC2=O)cc1 | inconclusive: 89.1 µM [inhibitor, single point] | 
15 | Cc1c(C(=O)OC2CCC(C)CC2)[nH]c2c1C(=O)CCC2 (stereo unspecified) | inconclusive: 79.4 µM [inhibitor, single point] | 
16 | CCOC(=O)c1c(-c2ccccc2)csc1NC(=O)C(C)NCc1ccco1 (stereo unspecified) | active: 25.1 µM | 
17 | O=C(CN1CCN(Cc2ccccc2)CC1)Nc1ccc([N+](=O)[O-])cc1C(=O)Nc1ccccc1F | inconclusive: 3.16 µM [inhibitor, single point] | 
18 | O=C(Cn1cc(C(=O)C(F)(F)F)c2ccccc21)N1CCCCCC1 | inactive | 
19 | COc1ccc(-n2c(Cc3cccn3C)nnc2SCC(=O)Nc2nccs2)cc1 | inconclusive: 89.1 µM [inhibitor, single point] | 
20 | Cc1cc(C)nc(N2CCC(C(=O)NNC(=O)c3ccc(Cl)cc3)CC2)n1 | inconclusive: 3.55 µM [inhibitor, partial curve, poor fit] | 
21 | CCN(CC(=O)Nc1ccc(OC)cc1)C(=O)c1ccc2c(=O)n3c(nc2c1)CCC3 | inactive | 
22 | CS(=O)(=O)c1ccc(-c2nnc(NC(=O)c3ccco3)o2)cc1 | active: 12.6 µM | 

Row | Structure (SMILES) | Potency | activity, negative = inhibition
23 | O=C(NCCc1c[nH]c2ccccc12)c1cnc2sccn2c1=O | inconclusive: 89.1 µM [inhibitor, single point] | 
24 | CC1CCCN(CCSc2ccc(Cl)cc2)C1 (stereo unspecified) | active: 11.2 µM | 
25 | COC(=O)C1=C(C)NC(=O)NC1c1c(O)ccc2ccccc12 (stereo unspecified) | inconclusive: 12.6 µM [inhibitor, partial curve, poor fit] | 
26 | Cc1nc2sccn2c(=O)c1CCN1CCC(=C(c2ccccc2)c2ccc(F)cc2)CC1 | inconclusive: 70.8 µM [inhibitor, partial curve, poor fit] and inconclusive: 14.1 µM [inhibitor, partial curve] | 
27 | N=c1oc2cc(O)ccc2cc1C(=O)Nc1nc2ccccc2s1 | inconclusive: 1.41 µM [inhibitor, full curve] | 
28 | N#CCCn1cnc2c(=S)nc[nH]c21 | inconclusive: 50.1 µM [inhibitor, partial curve, poor fit] | 
29 | CCCn1c(C2CCCN2c2nc(C)cs2)nc2cc(Cl)c(Cl)cc21 (stereo unspecified) | inconclusive: 56.2 µM [inhibitor, partial curve, poor fit] | 
30 | CCNc1nc(NCC)n2c(SCC(=O)c3ccccc3F)nnc2n1 | inconclusive: 89.1 µM [inhibitor, single point] | 
31 | Cc1ccc2c(c1)N(C(=O)N1CCC(C(=O)NCc3ccccc3C)CC1)CC(C)O2 (stereo unspecified) | inactive | 
32 | COc1ccccc1N(CCC#N)C(=O)CSc1nnc2ccccn12 | inconclusive: 6.31 µM [inhibitor, single point] | 
33 | CCN(C(=O)c1cccc(S(=O)(=O)N2CCCCC2)c1)C1CCS(=O)(=O)C1 (stereo unspecified) |  | inactive: -2.76% [at 12.7 µM]
34 | CC(C)(C)C(=O)OCc1nc(-c2ccc(O)c(O)c2)cs1 | inconclusive: 3.16 µM [inhibitor, single point] | 
35 | O=C(Nc1ccc(C2=NCCN2)cc1)c1ccc(Cl)c(C(=O)Nc2ccc(C3=NCCN3)cc2)c1 | active: 17.8 µM | 
36 | Cc1ccccc1N(CC(=O)NCc1ccco1)C(=O)CCC(=O)Nc1nccs1 | inactive | 
37 | Cc1ccc(CNC(=O)CN(C)C2=NS(=O)(=O)c3ccccc32)cc1 | inconclusive: 11.2 µM [inhibitor, partial curve, poor fit] | 
38 | Cc1ccc(C)c(N2CCN(C(=O)c3cc4c(C)nc5ccccc5c4o3)CC2)c1 | inconclusive: 70.8 µM [inhibitor, single point] | 
39 | COc1ccc(N(CC(=O)N2CCCC2)S(=O)(=O)c2ccc(NC(C)=O)cc2)cc1 | inconclusive: 15.8 µM [inhibitor, partial curve, poor fit] | 
40 | COc1ccc(-c2nc(SCC(=O)Nc3cccc(S(N)(=O)=O)c3)n[nH]2)cc1 | inconclusive: 79.4 µM [inhibitor, partial curve, poor fit] | 
41 | Cn1c(N)cc(-c2ccc(F)cc2)c(C#N)c1=O | inactive | 
42 | O=C1COc2ccc(NC(=O)c3ccccc3C(=O)O)cc2N1 | inconclusive: 1 µM [inhibitor, single point] | 
43 | Cc1ccc(Nc2nc(-c3ccc(C)cc3)c(CC(=O)O)s2)cc1 | active: 35.5 µM | 
44 | Nc1cc(Cl)ccc1Oc1ccccc1 |  | inactive: 42.6% [at 12.7 µM]

Row | Structure (SMILES) | Potency | activity, negative = inhibition
45 | COc1ccc(C)cc1NC(=O)c1cc(S(=O)(=O)N2CCOCC2)cn1C | inactive | 
46 | CC(C)c1ccc(Nc2nnc(SCC(=O)c3nnc(-c4ccccc4)o3)s2)cc1 | inconclusive: 31.6 µM [inhibitor, partial curve, poor fit] | 
47 | O=C(O)CCNc1ccc2c(c1)OCCO2 |  | inconclusive: -51.4% [inhibitor]
48 | Cc1cc(C)c(S(=O)(=O)NCC2CCC(C(=O)NCCCN3CCC(C)CC3)CC2)c(C)c1 (stereo unspecified) | inactive | 
49 | COc1ccc(/C=C2\CN(Cc3ccccc3)C/C(=C\c3ccc(OC)cc3)C2=O)cc1 | active: 17.8 µM | 
50 | COc1ccc(N2CCN(C(=O)C3CCCN(C(=O)c4cc5sccc5n4C)C3)CC2)cc1 (stereo unspecified) | inconclusive: 25.1 µM [inhibitor, partial curve, poor fit] | 
51 | FC(F)Sc1ccc(Nc2ncnc3nc[nH]c23)cc1 | inconclusive: 39.8 µM [inhibitor, single point] | 
52 | CCN(CC(=O)Nc1ccc(OC)cc1)C(=O)c1ccccc1Sc1ccccc1C#N | inactive | 
53 | C/C(=N\Nc1ccc(S(=O)(=O)Nc2ccccc2)cc1[N+](=O)[O-])c1ccncc1 | inconclusive: 89.1 µM [inhibitor, single point] | 
54 | Cc1ccc(N(CC(=O)NCc2ccco2)C(=O)CCC(=O)Nc2nccs2)cc1 |  | inactive: 10.9% [at 12.7 µM]
55 | NC(=NCCCCCCN=C(N)/N=C(\N)Nc1ccc(Cl)cc1)/N=C(\N)Nc1ccc(Cl)cc1 | active: 14.1 µM | 
56 | CCCCN(C(=O)NC(=O)Nc1nc2ccc(OC)cc2s1)S(C)(=O)=O |  | inconclusive: -57.1% [inhibitor]
57 | O=C(O)CCN1C(=O)/C(=C\c2cccc(OCC(=O)Nc3ccc(Cl)cc3)c2)SC1=S | inconclusive: 31.6 µM [inhibitor, single point] | 
58 | Cc1cccc(NC(=O)CCC(=O)Nc2nnc(C(F)(F)F)s2)c1 | inactive | 
59 | Cc1ccc(Cn2c(C)nc3c(c2=O)c2nc4ccccc4nc2n3Cc2ccco2)cc1 | inconclusive: 2.51 µM [inhibitor, partial curve, poor fit] | 
60 | CCOc1ccc(C(=O)Nc2cc(NC(=O)c3ccc(OCC)c(Cl)c3)cc(C(=O)O)c2)cc1Cl | inconclusive: 17.8 µM [inhibitor, partial curve] | 
61 | O=C(O)c1ccc(/C=N/NC(=O)C(O)(c2ccccc2)c2ccccc2)cc1 | inconclusive: 44.7 µM [inhibitor, partial curve, poor fit] | 
62 | O=C(COC(=O)C1CCN(c2ccc(C(F)(F)F)cn2)CC1)Nc1cccc(F)c1 | inconclusive: 39.8 µM [inhibitor, partial curve, poor fit] | 
63 | Cc1cccc(NC(=O)CNC(=O)Cn2cc(C(F)(F)F)cc(Cl)c2=O)c1C | inconclusive: 50.1 µM [inhibitor, partial curve] | 
64 | O=C(CN1CCN(CC(=O)Nc2ccc3c(c2)OCO3)CC1)Nc1ccc(F)cc1 |  | inactive: -4.1% [at 2.33 µM]
65 | Clc1ccc(/C=N/N2CCN(Cc3ccccc3)CC2)cc1 | active: 50.1 µM | 
66 | O=C(C1CC=CCC1)N1CCN(S(=O)(=O)c2ccc(F)cc2)CC1 (stereo unspecified) | inconclusive: 56.2 µM [inhibitor, partial curve, poor fit] | 
